Reference: the RNAGym collection of RNA variant scans (doi:10.1073/pnas.2313332121)
Variants at the floor of the assay are shown more often than the library holds them.

B1: TPR 5TU (parent)
chain: GGAUCUUCUCGAUCUAACAAAAAAGACAAAUCUGCCACAAAGCUUGAGAGCAUCUUCGGAUGCAGAGGCGGCAGCCUUCGGUGGCGCGAUAGCGCCAACGUUCUCAACUAUGACACGCAAAACGCGUGCUCCGUUGAAUGGAGUUUAUCAUG

Variants of: B1
Experiment: polymerase ribozyme fitness, log enrichment relative to wild type (log ratio); higher = more active; in vitro selection for triplet polymerase activity
How it was run: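 Each subunit of a heterodimeric triplet polymerase ribozyme was mutagenized into a library by PCR, transcribed, and subjected to one round of in vitro selection, run in triplicate. Libraries were annealed with a biotinylated primer, the partner subunit and triplets, incubated frozen at −7 °C, and extended constructs were gel-excised, captured on streptavidin beads and recovered by RT-PCR. Input and output libraries were sequenced on Illumina, keeping genotypes with ≥10 input reads and ≥1 read per output. Fitness is log base 2 of genotype enrichment divided by wild-type enrichment, from inverse-variance-weighted replicate averages.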
In the case of A23U A30U C51G G86U G140U U144A U151A, the “polymerase ribozyme fitness (log ratio)” value is reported as no more than -4.2. In the case of A22G G46U C93U A97U G136U, the “polymerase ribozyme fitness (log ratio)” value is reported as no more than -4.2. In the case of A21U G25C C51U A66G, the “polymerase ribozyme fitness (log ratio)” value is reported as no more than -4.2. For A21U C36A A40C C85U C99A G143A, the “polymerase ribozyme fitness (log ratio)” value was no more than -4.2. With A21U G50A C63G A89G C95U C116U the “polymerase ribozyme fitness (log ratio)” value was -1.96. In the case of A23U A28U A40C C54G G58C C75A G84A G126A U130G G136C, the “polymerase ribozyme fitness (log ratio)” value is reported as no more than -4.2. With A22C C85A the “polymerase ribozyme fitness (log ratio)” value was -1.08. For A22C C85U, the “polymerase ribozyme fitness (log ratio)” value was -0.656. In the case of A23C G68U C85A, the “polymerase ribozyme fitness (log ratio)” value is reported as no more than -4.2. For A23C C27U C57U C72A G83C A120G U151G, the “polymerase ribozyme fitness (log ratio)” value was no more than -4.2. For A22U A120G U144A, the “polymerase ribozyme fitness (log ratio)” value was 0.42. In the case of A23C A119U G124C, the “polymerase ribozyme fitness (log ratio)” value is reported as no more than -4.2. In the case of A22U A23G G50A G86A C116G U130G C131G, the “polymerase ribozyme fitness (log ratio)” value is reported as no more than -4.2. With A23C the “polymerase ribozyme fitness (log ratio)” value was -3.48. With A23U the “polymerase ribozyme fitness (log ratio)” value was -3.23. For A23G, the “polymerase ribozyme fitness (log ratio)” value was -1.78. For A22U G25U A39U G92A C149U, the “polymerase ribozyme fitness (log ratio)” value was no more than -4.2. With A22G A24U C85U G86A G88A G100U U109G A119G U135A the “polymerase ribozyme fitness (log ratio)” value was no more than -4.2. In the case of A21U G80U G94A A147U, the “polymerase ribozyme fitness (log ratio)” value is reported as -0.607. For A22U A26U G50C C54A A91C, the “polymerase ribozyme fitness (log ratio)” value was no more than -4.2. With A22U C57G G58A C93G the “polymerase ribozyme fitness (log ratio)” value was no more than -4.2. For A23U A29U A121U G141U, the “polymerase ribozyme fitness (log ratio)” value was no more than -4.2. For A21U C36G U44C C54G G74U A89G A120C U134G, the “polymerase ribozyme fitness (log ratio)” value was no more than -4.2. In the case of A22C A37U U61G C85G A91U U146A, the “polymerase ribozyme fitness (log ratio)” value is reported as no more than -4.2. With A22C U44A A60C C99G G117A the “polymerase ribozyme fitness (log ratio)” value was no more than -4.2. With A23U A28C A60C U61G C72G G94U U127C the “polymerase ribozyme fitness (log ratio)” value was no more than -4.2. With A23C C54A C87A U90G G94C C116A A138G U145A the “polymerase ribozyme fitness (log ratio)” value was no more than -4.2. In the case of A22U U104A C108G, the “polymerase ribozyme fitness (log ratio)” value is reported as no more than -4.2. In the case of A21U C87G, the “polymerase ribozyme fitness (log ratio)” value is reported as no more than -4.2. With A21U C87U the “polymerase ribozyme fitness (log ratio)” value was -0.254. In the case of A21U U44A U82C G84A A137C G140A, the “polymerase ribozyme fitness (log ratio)” value is reported as no more than -4.2. For A23C A24C C43G C69G A91C C95A A122G, the “polymerase ribozyme fitness (log ratio)” value was no more than -4.2. For A23G U44G A47C C93U A97U C116A G128C U134C U146C, the “polymerase ribozyme fitness (log ratio)” value was no more than -4.2. With A22U U56A G84A U139A U145G the “polymerase ribozyme fitness (log ratio)” value was no more than -4.2. With A22U A49C C69G G70C U101A the “polymerase ribozyme fitness (log ratio)” value was no more than -4.2. For A22C C27U A49C C51U C76A C87G C93G A142U, the “polymerase ribozyme fitness (log ratio)” value was no more than -4.2. In the case of A22U A47U C96U U148A, the “polymerase ribozyme fitness (log ratio)” value is reported as -4.14. For A23C A47G C93U C125A G126A G128A, the “polymerase ribozyme fitness (log ratio)” value was no more than -4.2. In the case of A22U A26C A41U C54U U78G A91U G100A C105U A150G, the “polymerase ribozyme fitness (log ratio)” value is reported as no more than -4.2. In the case of A23C A47U U61A C95A, the “polymerase ribozyme fitness (log ratio)” value is reported as no more than -4.2. For A23C A24U A40C G124U, the “polymerase ribozyme fitness (log ratio)” value was no more than -4.2. For A22G A24C U90C C96A U102G A119C G141A U146C C149U, the “polymerase ribozyme fitness (log ratio)” value was no more than -4.2. For A23G G59U C95U A110G, the “polymerase ribozyme fitness (log ratio)” value was -3.86. For A22C C76A A89G C95G, the “polymerase ribozyme fitness (log ratio)” value was -4.19. In the case of A21U C69A G88U A97C, the “polymerase ribozyme fitness (log ratio)” value is reported as no more than -4.2. In the case of A21U A29C G88C A113C, the “polymerase ribozyme fitness (log ratio)” value is reported as no more than -4.2. In the case of A22U G86U A120U, the “polymerase ribozyme fitness (log ratio)” value is reported as -1.56. In the case of A21U C54U A60U U61A C75A C96G C105A C125U, the “polymerase ribozyme fitness (log ratio)” value is reported as no more than -4.2. In the case of A22U A23U G34C C95U C105U A107U C108G A115U A120U A142U A147G, the “polymerase ribozyme fitness (log ratio)” value is reported as no more than -4.2. With A23U A39U C72U C93U U130A C132U the “polymerase ribozyme fitness (log ratio)” value was no more than -4.2. With A21U A52G C87U C114U U144G the “polymerase ribozyme fitness (log ratio)” value was -3.22. In the case of A23C C123A, the “polymerase ribozyme fitness (log ratio)” value is reported as no more than -4.2. For A21U C95A U146G, the “polymerase ribozyme fitness (log ratio)” value was -0.389. For A23G G46C, the “polymerase ribozyme fitness (log ratio)” value was no more than -4.2. With A22U A47U G59U C72G G80A the “polymerase ribozyme fitness (log ratio)” value was no more than -4.2. For A22G C43A C95U A122U G143U, the “polymerase ribozyme fitness (log ratio)” value was no more than -4.2. With A22G G42C A47G G94C C114U A120U the “polymerase ribozyme fitness (log ratio)” value was no more than -4.2. With A22G C35A U56C C125U U134G U148A the “polymerase ribozyme fitness (log ratio)” value was no more than -4.2. For A22C A28C U61G A91C C95U A98G, the “polymerase ribozyme fitness (log ratio)” value was no more than -4.2. For A23C C57U G92U C93U, the “polymerase ribozyme fitness (log ratio)” value was no more than -4.2. With A21U U45A A91U the “polymerase ribozyme fitness (log ratio)” value was no more than -4.2. For A21U A49C G80U G88C U102G G124A U144G A147U, the “polymerase ribozyme fitness (log ratio)” value was no more than -4.2. With A23C C43A C54U A73U C99G the “polymerase ribozyme fitness (log ratio)” value was no more than -4.2. For A21U G84A G88U C96G A113U U144G, the “polymerase ribozyme fitness (log ratio)” value was no more than -4.2. For A22U A30U C32A U78G G88A G117U U139G, the “polymerase ribozyme fitness (log ratio)” value was no more than -4.2. In the case of A22U C76G, the “polymerase ribozyme fitness (log ratio)” value is reported as no more than -4.2. For A22G C36U C87U, the “polymerase ribozyme fitness (log ratio)” value was -3.06. With A22C A30G C35U A47G C95A C132G the “polymerase ribozyme fitness (log ratio)” value was no more than -4.2. For A21U A30C A40G A97G C118G, the “polymerase ribozyme fitness (log ratio)” value was no more than -4.2. For A22U C69A A91U, the “polymerase ribozyme fitness (log ratio)” value was no more than -4.2. For A22U G48C G68C C85U G152U, the “polymerase ribozyme fitness (log ratio)” value was no more than -4.2. With A22U G50A G62U U77A C93A G133A U151C the “polymerase ribozyme fitness (log ratio)” value was no more than -4.2. With A22G A24G A28G C51U C76A the “polymerase ribozyme fitness (log ratio)” value was no more than -4.2. In the case of A22U G58A A60C U111A, the “polymerase ribozyme fitness (log ratio)” value is reported as no more than -4.2. For A23C A91U, the “polymerase ribozyme fitness (log ratio)” value was no more than -4.2. In the case of A22G G25C A26C U55G G86U A106C C108U A122U U148A, the “polymerase ribozyme fitness (log ratio)” value is reported as no more than -4.2. With A22U C35U A47U G59U G67A C132A G136U the “polymerase ribozyme fitness (log ratio)” value was no more than -4.2. For A23C G59C G86U U134A U151C, the “polymerase ribozyme fitness (log ratio)” value was no more than -4.2. For A22U C87G, the “polymerase ribozyme fitness (log ratio)” value was no more than -4.2. With A23G C27G A40U C75U G81C G94C U101A U109A the “polymerase ribozyme fitness (log ratio)” value was no more than -4.2. In the case of A22C A28C A60C G88U C93A U109G, the “polymerase ribozyme fitness (log ratio)” value is reported as no more than -4.2. In the case of A22G C35U A39C U127G C129A, the “polymerase ribozyme fitness (log ratio)” value is reported as no more than -4.2. With A22C A26U A39U U53G A66C A150G the “polymerase ribozyme fitness (log ratio)” value was no more than -4.2. With A22G G86C the “polymerase ribozyme fitness (log ratio)” value was -1.67.
